Data: PubChem BioAssay AID1345082 (National Center for Advancing Translational Sciences (NCATS), 2018)
About 4,000 (4.3%) of roughly 94,000 compounds were called active. The inconclusive results got no clear call from the source; some entries with a clear call stand among them for comparison. Calls come from the whole dose curve; as a rule, active = well fitted inhibition curve with a large enough effect; inconclusive = small, poorly fitted or top-dose-only effect; inactive = no such curve, though single readings can be large or run the other way. Potencies beside an inconclusive call are fits to weak or partial responses and may not hold up.

Experiment: Cytotoxic Profiling in NIH 3T3 Cell Line of Diverse Libraries Using Quantitative High-Throughput Screening; note: nearly all actives have a fitted effect of over 55% in size
Conditions: NIH 3T3 viability, CellTiter-Glo ATP luminescence, 48-72 h; series mostly up to 96.7 µM
Summary of the method: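 Cytotoxicity is measured as loss of cellular ATP: NIH 3T3 cells (400/well) are exposed to compound for 48 or 72 hr at 37 °C, then CellTiter-Glo luminescence is imaged after 10 min at room temperature.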
Potency is the fitted concentration of half-maximal effect; tags give direction and shape of the fitted curve.

Compound	Potency
COCCNc1ncc(-c2ccc(F)cc2)c2c1OCC2	inconclusive: 25.1 µM [inhibitor, partial curve, poor fit]
COc1ccc(C(=O)N2CCN(C(=O)c3cccc(-c4ccc(OC)nn4)c3)CC2)cc1	inconclusive: 56.2 µM [inhibitor, single point]
Cc1ccccc1SC1CCN(c2cc(C3CC(O)C3)ncn2)CC1 (stereo not given)	inconclusive: 17.8 µM [inhibitor, partial curve, poor fit]
COCC(=O)N1CCC(O)(c2csc(CN3CCC[C@@H]3COC)n2)CC1	inactive
COCCN1CCOc2nc(-c3cc(F)cc(OC)c3)ncc2C1=O	active: 28.2 µM
COc1ccc(NC(=O)O[C@@H]2CO[C@H]3[C@@H]2OC[C@@H]3NS(=O)(=O)c2ccc(NC(C)=O)cc2)cc1	inconclusive: 89.1 µM [inhibitor, single point]
O=C(NCc1cccs1)c1cc(-c2cccnc2)c2nncn2n1	inconclusive: 79.4 µM [inhibitor, partial curve]
COc1ccc(C(=O)Nc2ccc3c(N4CCOCC4)ncnc3c2)c(C)c1	active: 22.4 µM
O=Cc1cccc(-c2cncnc2)c1	inconclusive: 100 µM [inhibitor, partial curve]
COc1ccc(CN2CCC3(Cc4ccccc4CNC3=O)C2)c(OC)n1 (stereo not given)	inactive
O=C1COCC2(CN1Cc1ccccc1)CN(C(=O)C1(c3ccccc3)CC1)C2	active: 79.4 µM
CN1CCCC1CCNc1nccc(-c2cnn(-c3ccc(F)cc3)c2)n1 (stereo not given)	inconclusive: 56.2 µM [inhibitor, partial curve, poor fit]
O=C(Cc1ccc(F)cc1)N1CCCC(c2nn(-c3ccc(Cl)cc3)c(=O)[nH]2)C1 (stereo not given)	inconclusive: 70.8 µM [inhibitor, single point]
NCCCC(=O)N1CCCC2(Cc3ccccc3CN2C(=O)c2cccc(Cl)c2)C1 (stereo not given)	inconclusive: 70.8 µM [inhibitor, single point]
Cn1cccc1CN1CCC2(C1)C(=NC1CCCC1)NC(=O)N2c1cccnc1 (stereo not given)	inconclusive: 50.1 µM [inhibitor, partial curve, poor fit]
COC1CCN(c2cc(-c3ccccc3)nc3c(C)noc23)CC1	inconclusive: 56.2 µM [inhibitor, partial curve, poor fit]
COCc1ccc2c(c1)c(OC(C)(C)C(=O)NCCN1CCOCC1)nn2Cc1cccnc1	inconclusive: 56.2 µM [inhibitor, partial curve, poor fit]
CCOc1ccc(-c2[nH]ncc2CN)cc1	inconclusive: 79.4 µM [inhibitor, single point]
O=C(c1ccncc1)N1CCC(CCOc2ccc(F)cc2)C1 (stereo not given)	inconclusive: 22.4 µM [inhibitor, full curve, poor fit]
COc1ccc(NC(=O)NCCc2noc(C3CC3)n2)cc1OC	inactive
CC(NC(=O)c1ccc(Cn2ccn3nc4c(c3c2=O)CCCC4)cc1)c1ccccc1 (stereo not given)	inconclusive: 39.8 µM [inhibitor, partial curve, poor fit]
O=C(NCc1ccc(F)cc1F)C1CCN(C(=O)c2ccc(-c3cccs3)cc2)CC1	inconclusive: 28.2 µM [inhibitor, full curve]

Compound	Potency
Cc1ccc(CN2CC[C@@H]3OCC(=O)N(Cc4ccccc4)[C@H]3CC2)o1	inconclusive: 112 µM [inhibitor, single point]
COc1nccnc1-c1cc(NCCN(C)C)nc2[nH]ccc12	inactive
CN(Cc1ccc(F)cc1)C(=O)Cc1ccccn1	inactive
CCN1CCN(C(=O)c2cc(-c3ccccc3C(F)(F)F)nc3c2cnn3C)CC1	inactive
O=C(Cc1c[nH]c2ncc(-c3cccnc3)cc12)NCc1ccccc1	active: 35.5 µM
O=C(NCCCc1ccccc1)c1nnn2c1COC(c1ccc(Br)cc1)C2 (stereo not given)	inconclusive: 11.2 µM [inhibitor, full curve]
O=C(c1cccc(C(F)(F)F)c1)N1CCOCC2(CN(Cc3ccccc3)C2)C1	active: 7.08 µM
COc1cccc(C(=O)N2[C@@H]3CC[C@H]2CC(NC(=O)c2cnc(C)cn2)C3)c1C (stereo not given in full)	inactive
COc1ccc(NC(=O)C2(C)CCc3cnc(N4CCOCC4)nc32)cc1 (stereo not given)	inconclusive: 63.1 µM [inhibitor, partial curve, poor fit]
CCC(C)NC(=O)N1CC(Oc2ccc(-c3noc(COC)n3)cc2)C1 (stereo not given)	inconclusive: 39.8 µM [inhibitor, partial curve, poor fit]
COCCn1cc2c3c(cccc31)CN(C(=O)CCCc1ccccc1)CC2	inconclusive: 35.5 µM [inhibitor, partial curve, poor fit]
O=C(NCc1nnc2cc(-c3nc(C4CC4)no3)ccn12)c1ccc(F)cc1Cl	inconclusive: 20 µM [inhibitor, full curve, poor fit]
O=C(Cn1ccn2nc(-c3ccc(F)cc3)c(CO)c2c1=O)Nc1ccc2c(c1)OCCO2	inactive
CN(C)CCCN(C)c1nccc(C2(c3ccccc3Cl)CCNCC2)n1	inconclusive: 79.4 µM [inhibitor, partial curve, poor fit]
O=C(c1ccccc1OC(F)(F)F)N1C[C@@H](CO)[C@@H]2Oc3c(F)cccc3[C@@H]21	inconclusive: 50.1 µM [inhibitor, partial curve, poor fit]
Cc1nn(C)c(C)c1CCNC(=O)C1(CCO)CC12CCOCC2 (stereo not given)	inactive
c1ccc(-c2nc(-c3ccncc3)no2)c(OC2CCN(C3CCCC3)C2)c1 (stereo not given)	inconclusive: 3.98 µM [inhibitor, full curve, poor fit]
CC1=C[C@@H](CNS(=O)(=O)c2ccccc2)[C@H](C(C)C)C[C@H]1Cc1nc2ccncc2[nH]1	active: 79.4 µM
Cn1ncc2c(C(=O)NCC#N)cc(-c3ccc(C(F)(F)F)cc3)nc21	inconclusive: 44.7 µM [inhibitor, partial curve, poor fit]
CC1CCN(C(=O)[C@@H](C)C2CC[C@@]3(C)CC[C@H](NC(=O)Nc4cccc(F)c4)[C@@H](C)[C@@H]3[C@H]2O)CC1 (stereo not given in full)	inactive
CCN(CC)C(=O)CCc1c(C)nn(-c2ccccc2)c1Oc1ccc(F)cc1F	inconclusive: 31.6 µM [inhibitor, partial curve, poor fit]
CN(C)C(=O)CCc1ccc(CC2CCN(C(=O)CCC3CCCC3)CC2)cc1	inconclusive: 44.7 µM [inhibitor, partial curve, poor fit]

Compound	Potency
O=c1[nH]c(C2CCCN([S+](=O)([O-])c3cccc(C(F)(F)F)c3)C2)nn1-c1ccc(F)cc1 (stereo not given)	inactive
O=C(Cc1ccccc1Cl)N1CCC2(CC1)NC(=O)N(c1ccc(F)cc1)N2	inconclusive: 50.1 µM [inhibitor, partial curve, poor fit]
CCCC(=O)Nc1ccc(C2OC(=O)N(Cc3ccc(F)cc3)C2C(=O)NCc2ccccc2)cc1 (stereo not given)	inconclusive: 50.1 µM [inhibitor, single point]
CC(=O)Nc1ccc(CN2CCC3(COc4ccccc4C(=O)N3)C2)cc1 (stereo not given)	inconclusive: 50.1 µM [inhibitor, partial curve, poor fit]
Cc1ccc(C(=O)N2CCCN(c3cc(-c4ccccc4)[nH]n3)CC2)cc1	inactive
CNC(=O)c1cc(C2CC2)nc2onc(C3CCN(C(=O)c4cccc(Cl)c4)CC3)c12	inconclusive: 31.6 µM [inhibitor, partial curve, poor fit]
COc1ccc(CN2CCC(C3CCN(S(C)(=O)=O)CC3)C2)cc1OC (stereo not given)	inactive
O=C(CN1C(=O)NC2(CCCCC2)C1=O)Nc1ccc(F)c(Cl)c1	inconclusive: 50.1 µM [inhibitor, partial curve, poor fit]
Cc1ccc2c(C(=O)NCc3ccc(C(F)(F)F)cc3)cc(NC(=O)C(C)C)cc2n1	inconclusive: 20 µM [inhibitor, full curve]
O=C(c1ccc2cc[nH]c2c1)N1CCC2(CC1)N=C(c1ccccc1)NO2	inactive
Cc1ccc(C(=O)N2CCC3(CC2)N=C(c2cccc(Br)c2)NO3)cc1C	inconclusive: 50.1 µM [inhibitor, partial curve, poor fit]
O=C(NC1CCCN(c2cc(-c3ccc(F)cc3)[nH]n2)C1)c1ccc2c(c1)OCO2 (stereo not given)	inconclusive: 44.7 µM [inhibitor, partial curve, poor fit]
CS(=O)(=O)N1CCCC(C(=O)N2CCC(c3ccccc3)CC2)C1 (stereo not given)	inactive
C#CCNC(=O)C[C@@H]1O[C@H](CNC(=O)Nc2ccc(C)cc2)[C@@H](O)[C@H]1O	inconclusive: 100 µM [inhibitor, partial curve, poor fit]
CCc1cccc(NC(=O)N2[C@@H]3CC[C@H]2CC(NC(=O)c2ccc(F)cc2)C3)c1 (stereo not given in full)	inconclusive: 50.1 µM [inhibitor, partial curve, poor fit]
O=C(NCc1ccc2c(c1)OCO2)C1CCCCN1Cc1ccc(-c2ccsc2)cc1 (stereo not given)	active: 12.6 µM
O=S(=O)(Cc1ccccc1)N1CCCC1Cc1noc(-c2cnccn2)n1 (stereo not given)	inactive
CC1=C(C(=O)Nc2ccccc2)C(c2cc(C)ccc2C)N2C(CC(=O)N3CCCC3)=CSC2=N1 (stereo not given)	inconclusive: 70.8 µM [inhibitor, single point]
O=C(O)C1CNCCN(C(=O)c2nc3ccc(F)cc3[nH]2)C1 (stereo not given)	inactive
Cc1ccc(C)c(CN2C(=O)NC3(CCN(C(=O)c4cnccn4)CC3)C2=O)c1	inactive
COc1ccc(Nc2ccnc(N3CCC(NC(=O)c4ccc(C)cc4)CC3)n2)cc1	inactive
